Results reported in ChEMBL document CHEMBL4888484, “Replenishing the malaria drug discovery pipeline: Screening and hit evaluation of the MMV Hit Generation Library 1 (HGL1) against asexual blood stage Plasmodium falciparum ,using a nano luciferase reporter read-out” (2022).
Screen size: about 150,000 compounds; about 540 (0.36%) showed an effect of 50% or more. Some of the results follow.

System: Plasmodium falciparum
Assay: Primary screen in NF54 nanoGlo assay, in single point, at 2uM, 72h; a lower Z score goes with more inhibition
Assay type: functional, Erythrocyte
Conditions: timepoint 72 hour

Q: For `O=C(Cn1ccc2ccccc21)N1CC[C@@]2(CCCN(CC3CC3)C2=O)C1`, which “% Inhibition” value is on record?
A: 0%

Q: And the Z score?
A: 0

Q: Which “% Inhibition” value does the source give for `CCn1cc(CN(C)C(=O)c2cccc(-c3nc(OC)n(C)n3)c2)cn1` here?
A: -7%

Q: And the Z score?
A: 0.69

Q: For `N[C@H](C(=O)N1CCOc2ccc(Br)cc2C1)C1CCC1`, which “% Inhibition” value is on record?
A: -12%

Q: And the Z score?
A: 1.09

Q: With `O=C(Cc1ccoc1)N1CC(=O)N(CC(F)(F)F)C1` as the compound, how does the “% Inhibition” value read?
A: 2%

Q: And the Z score?
A: -0.26

Q: What does the source list for `CN(C)c1nc2c(s1)[C@@H](c1cccc3cnccc13)CC(=O)NC2`?
A: % Inhibition: 11%; Z score: -1.95

Q: Which results are given for `Cn1ccc(NC(=O)CN(CCc2c[nH]c3ccccc23)C2CCCCC2)n1`?
A: % Inhibition: -4%; Z score: 0.41

Q: Which results are given for `CC(C)O[C@H]1CN(c2nc(-c3cccnc3)nc3c2cnn3C)C[C@@H]1O`?
A: % Inhibition: 7%; Z score: -0.92

Q: `Cn1c(C(=O)NCCN2CCCCC2)c(-c2ccc(Cl)cc2)c2cc(Cl)ccc21` was tested. Which “% Inhibition” value did it give?
A: -1%

Q: What about the Z score of the same compound?
A: 0.11

Q: Which “% Inhibition” value does the source give for `COc1cccc(-c2nc(C)c(C(=O)NCc3nnc4ccccn34)s2)c1` here?
A: -3%

Q: What about the Z score of the same compound?
A: 0.36

Q: For `O=C(COc1ccc(Cl)cc1)N1Cc2cncnc2C1`, which “% Inhibition” value is on record?
A: -16%

Q: And the Z score?
A: 2.7

Q: Which results are given for `O=C(CC1(N2Cc3ccccc3C2=O)CCOCC1)N1CCC[C@H](c2nnc3ccccn23)C1`?
A: % Inhibition: -8%; Z score: 0.99

Q: What does the source list for `FC(F)n1nccc1-c1nnc(Nc2ccn(Cc3c(Cl)cccc3Cl)n2)s1`?
A: % Inhibition: -4%; Z score: 0.57

Q: Which results are given for `CC(C)N(C(=O)c1ccnn1C(C)C)[C@H]1CCOC1`?
A: % Inhibition: 0%; Z score: -0.09

Q: How did the “% Inhibition” value turn out when `O=C(CN1CCN(c2ccccc2F)CC1)c1ccc2c(c1)OCO2` was run?
A: 33%

Q: And the Z score?
A: -4.84

Q: `COc1ccc(C(Nc2ccnc(OC)c2C#N)[C@H]2C[C@H](O)C2)cn1` (stereo partly specified) was tested. Which “% Inhibition” value did it give?
A: 11%

Q: What about the Z score of the same compound?
A: -1.37

Q: Which “% Inhibition” value does the source give for `CC[C@H](NCc1nnc(C)n1CC)c1nccs1` here?
A: -12%

Q: And the Z score?
A: 1.55

Q: Which “% Inhibition” value does the source give for `Cc1ccc(CN(CCC(=O)N2CCOCC2)CCc2ccccc2)s1` here?
A: -2%

Q: What about the Z score of the same compound?
A: 0.2

Q: Which “% Inhibition” value does the source give for `CCn1nnc2cc(C(=O)N3CCC[C@H]3c3ccc4c(c3)OCCO4)ccc21` here?
A: -41%

Q: What about the Z score of the same compound?
A: 4.78

Q: What does the source list for `C[C@H]1CCCN1C(=O)c1ccc(S(=O)(=O)NC2CCOCC2)cc1`?
A: % Inhibition: -4%; Z score: 0.48

Q: How did the “% Inhibition” value turn out when `Cn1ncc2c(N3CC[C@H](Oc4ccc(Cl)c(Cl)c4)C3)ncnc21` was run?
A: -10%

Q: And the Z score?
A: 1.42

Q: `Cn1cccc1C(=O)OCC[C@H]1CCCCN1C(=O)c1cccn1C` was tested. Which “% Inhibition” value did it give?
A: -16%

Q: What about the Z score of the same compound?
A: 1.5

Q: With `Cc1ccc(C)c(C2CCN(C(=O)[C@@H]3CC(=O)NC(=O)N3)CC2)c1` as the compound, how does the “% Inhibition” value read?
A: 10%

Q: What about the Z score of the same compound?
A: -1.88

Q: Which “% Inhibition” value does the source give for `N#CC(NC(=O)C1CNC(=O)C1)c1ccc(OCc2ccccc2)cc1` (stereo unspecified) here?
A: 4%

Q: What about the Z score of the same compound?
A: -0.63
